The results in this text go back to PubChem BioAssay AID1346428 (National Center for Advancing Translational Sciences (NCATS), 2018).

“And” between values parts separate entries of the source, which are not always exact repeats. Equal entries are not always repeated. The whole screen tested about 48,000 compounds, of which about 1,200 (2.5%) were called active. About 2% were inconclusive and are not listed.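 The calls were made as follows: active = activation of at least 60% and not above a set upper limit (about 1 call in 100 departs from these limits); inconclusive = activation of 40% to 60%, or above that upper limit; inactive = activation under 40%.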 The list shows a part of the results.

This assay concerns the target Probable G-protein coupled receptor 32 (Homo sapiens) (UniProt O75388). Briefly: qHTS for Agonists of Human Resolvin D1 Receptor DRV1. Also: 0% is about no effect. Conditions: CHO-K1 GPR32 beta-arrestin PathHunter luminescence, 90 min; at 76.9 µM; stronger effect = higher value; zero percent set by DMSO-only wells. The essentials: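 CHO-K1 cells stably expressing ProLink-tagged GPR32 and Enzyme Activator-tagged beta-arrestin were seeded at 2,500 cells/well overnight, exposed to compounds for 90 min at 37 °C, then read by beta-Gal complementation chemiluminescence after 1 h detection reagent.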
Sequence of UniProt O75388 (O75388 whole entry, looked up): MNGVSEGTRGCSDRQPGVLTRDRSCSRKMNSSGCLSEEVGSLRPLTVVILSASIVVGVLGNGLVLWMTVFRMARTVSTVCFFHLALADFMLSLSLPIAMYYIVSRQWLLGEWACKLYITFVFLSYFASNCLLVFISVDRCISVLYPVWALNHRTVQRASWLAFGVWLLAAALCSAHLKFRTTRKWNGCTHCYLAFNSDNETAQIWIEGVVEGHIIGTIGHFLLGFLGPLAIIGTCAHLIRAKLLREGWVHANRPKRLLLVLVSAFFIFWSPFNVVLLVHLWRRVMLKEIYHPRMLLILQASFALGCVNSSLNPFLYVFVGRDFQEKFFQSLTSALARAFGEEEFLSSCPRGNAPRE
Consider `COc1cc(OC)c(OC)cc1C=O`, for which the activation is inactive: 22.8%.

Turning to `Fc1cc(Br)ccc1CBr`, the activation was inactive: -10.8%. Consider `NN=C(N)N`, for which the activation is inactive: 2.7% and inactive: -2.8% and inactive: -1.03%.

Consider `Clc1ccc(C(c2ccc(Cl)cc2)C(Cl)(Cl)Cl)cc1`, for which the activation was inactive: -10.2%. To `Cc1ccc(NC(=O)c2cccn(Cc3ccccc3C)c2=O)c(C)c1` belongs inactive: -7.39%. As for `COc1cc(N)c(Cl)cc1C(=O)NC1CN2CCC1CC2` (stereo not given), the figure is inactive: -3.3%; as for `CC(C(O)c1ccccc1)N(C)C/C=C/c1ccccc1` (stereo not given), inactive: 1.91%; as for `C[N+]1(C)C2CCC1CC(OC(=O)c1c[nH]c3ccccc13)C2` (stereo not given), inactive: 6.72%.

Regarding `c1ccc2sc(C3(N4CCCCC4)CCCCC3)cc2c1`, the activation is inactive: -12.2%. As for `CCc1cc2c(s1)-n1c(C)nnc1CN=C2c1ccccc1Cl`, the figure is inactive: 12.2%; as for `CC(C)(C)c1ccc(C(=O)Nc2ccc(Cl)cc2C(=O)c2ccccc2)cc1`, inactive: -12.5%. To `O=C(Nc1cc(C(F)(F)F)cc(C(F)(F)F)c1)c1cccn(Cc2ccccc2Cl)c1=O` belongs inactive: -2.58%; to `O=C(CCCN1CCC(n2c(=O)[nH]c3ccccc32)CC1)c1ccc(F)cc1`, inactive: 36.1%. To `C[C@]12CC[C@H]3[C@@H](CCC4=CC(=O)CC[C@@H]43)[C@@H]1CC[C@@H]2OC(=O)CCC1CCCCC1` belongs inactive: 19.3%; to `CCC1(CC)C(=O)NC(=O)NC1=O`, inactive: -12.9%; to `CCN1CCCC1CNC(=O)C(O)(c1ccccc1)c1ccccc1` (stereo not given), inactive: -13.6%. Take `C=Cc1ccc(Cn2c(C)c(CNCCc3cc(OC)ccc3OC)c(C(=O)O)c2C)cc1`: the activation is inactive: 46%. To `C[C@@H]1CN(C2CCC(C#N)(c3ccc(F)cc3)CC2)CC[C@]1(C(=O)O)c1ccccc1` (stereo not given in full) belongs inactive: -1.48%. For `CCCCc1nn2c(=O)cc(COC(=O)Cc3ccccc3)nc2s1`, the activation was inactive: 1.5%.

Regarding `COc1ccc(OC)c(C(O)C(C)N)c1` (stereo not given), the activation was inactive: -5.79%. As for `CCC(=O)O[C@H]1CC[C@H]2[C@@H]3CCC4=CC(=O)CC[C@]4(C)[C@H]3CC[C@]12C`, the figure is inactive: 33.5%; as for `COc1cccc([C@@]2(O)CCCC[C@@H]2CN(C)C)c1`, inactive: -1.89%; as for `C[C@]12CCC3C(CC[C@H]4C[C@H](O)CC[C@]34C)C1CC[C@@H]2C(=O)CO` (stereo not given in full), inactive: -1.08%. As for `CO[C@]12CC[C@@]3(C[C@@H]1[C@](C)(O)C(C)(C)C)[C@@H]1Cc4ccc(O)c5c4[C@@]3(CCN1CC1CC1)[C@H]2O5`, the figure is inactive: -3.01%; as for `Cc1ccccc1Cn1cccc(C(=O)Nc2nc3ccccc3s2)c1=O`, inactive: 0.706%. As to `O=c1[nH]c2ccccc2c(=O)n1-c1ccc(Cl)c(Cl)c1`, the activation was inactive: -22.2%. To `Cc1cccc(NC(=O)Cn2cc(C(=O)c3ccccc3)c3ccccc32)c1C` belongs inactive: -3.44%; to `Cc1oc(-c2ccc(Cl)cc2)nc1CN1C(=O)CN=C(c2ccccc2)c2ccccc21`, inactive: -13%. To `C=CCC1([C@H](C)CCC)C(=O)NC(=O)NC1=O` belongs inactive: -45.9%; to `CCn1cnc2c(Nc3cccc(Cl)c3)nc(N[C@@H]3CCCC[C@@H]3N)nc21`, inactive: -6.02%; to `O=C(Nc1ccon1)c1cccn(Cc2cccc(Cl)c2)c1=O`, inactive: -7.35%. As for `CC[N+]1(CC)CCC(OC(=O)C(O)(c2ccccc2)c2ccccc2)C1` (stereo not given), the figure is inactive: -8.81%. Turning to `O=S1(=O)N(CCN2CC=C(c3c[nH]c4cc(F)ccc34)CC2)c2cccc3c2N1CCC3`, the activation was inactive: -12.7%. As for `O=C1CC(c2ccc(Br)cc2)c2c(c3ccccc3oc2=O)O1` (stereo not given), the figure is inactive: -22.1%; as for `O=C(O)c1ccc(=O)[nH]c1`, inactive: 5.93%; as for `CCCSc1nc2ccccc2c(=O)n1-c1ccccc1OC`, inactive: -37.8%. As for `NCCc1c[nH]c2ccc(C(N)=O)cc12`, the figure is inactive: 1.73%; as for `COP(=S)(OC)Oc1cc(Cl)c(Cl)cc1Cl`, inactive: 0.157%. As for `Cc1ccc([N+](=O)[O-])[c]2c1[O][Hg]2`, the figure is inactive: 26.2%. For the compound `Cc1cc(C)cc(-n2c(=O)[nH]c3ccccc3c2=O)c1`, the activation is inactive: -5.95%. As for `O=S(=O)(O)C(F)(F)C(F)(F)C(F)(F)C(F)(F)F`, the figure is active: 94.8%; as for `CC(=O)N1CC(=O)Nc2ccc(F)cc2C1c1ccccc1` (stereo not given), inactive: 13.9%. As for `CCC12CN3CC(CC)(CN(C1)C3c1ccccn1)C2=O` (stereo not given), the figure is inactive: -11.1%. As for `CCOP(=O)(NC(C)C)Oc1ccc(SC)c(C)c1` (stereo not given), the figure is inactive: 7.84%; as for `O=C1CC(c2c(F)cccc2Cl)c2c(c3ccccc3oc2=O)O1` (stereo not given), inactive: 18.6%; as for `S=C(SSC(=S)N1CCCCC1)N1CCCCC1`, inactive: 1.88%. As to `CC1OC(C)OC(C)O1` (stereo not given), the activation is inactive: 7.56%. To `Cc1nnc(NC(=O)c2cccn(Cc3ccccc3F)c2=O)s1` belongs inactive: 24%; to `Nc1ccc([As](=O)(O)O)cc1`, inactive: -6.96%.

For the compound `O=C(COc1ccc(Cl)cc1)Nc1ccc(Cl)cc1C(=O)c1ccccc1`, the activation was inactive: -0.753%. To `Cc1c(C(c2ccc(F)cc2)c2c(O)c3ccccc3oc2=O)c(=O)n(-c2ccccc2)n1C` (stereo not given) belongs inactive: 7.32%; to `C=CCN1CC[C@]23CCCC[C@H]2[C@H]1Cc1ccc(O)cc13`, inactive: -3.61%; to `ClC1=C(Cl)C2(Cl)C(CBr)CC1(Cl)C2(Cl)Cl` (stereo not given), inactive: 1.89%. As for `Cc1ccc(-n2c(/C=C/c3ccc(Br)s3)nc3ccccc3c2=O)cc1C`, the figure is inactive: -31.2%; as for `O=c1[nH]c2ccccc2n1C1CCN(CCCC(c2ccc(F)cc2)c2ccc(F)cc2)CC1`, inactive: 36.1% and inactive: -29.1%; as for `CCCN1CC[C@@H]2c3cc(O)ccc3CC[C@@H]21`, inactive: -5.93%.

As for `CCN(CCO)CCn1c(Cc2ccccc2)nc2c1c(=O)n(C)c(=O)n2C`, the activation is inactive: -2.83%. As for `COc1ccc(OC)c(NC(=O)Cn2cc(C(=O)c3ccccc3F)c3ccccc32)c1`, the figure is inactive: -9.26%; as for `C=CCOC(Cn1ccnc1)c1ccc(Cl)cc1Cl` (stereo not given), inactive: -28.2%. As for `CC(=O)Nc1cc([As](=O)(O)O)ccc1O`, the figure is inactive: -0.0424%; as for `COc1ccc2c(C(=O)c3ccc(Cl)cc3)c(C)n(CC(=O)O)c2c1`, inactive: -8.01%; as for `NC(C(=O)O)c1cc(=O)[nH]o1` (stereo not given), inactive: 6.34%. Regarding `CCC(C(N)=O)N1CCCC1=O` (stereo not given), the activation was inactive: -8.93%. As for `Nc1ccc(CCN2CCN(c3cccc(C(F)(F)F)c3)CC2)cc1`, the figure is inactive: -7.11%. To `CC(C)NCC(O)c1ccccc1Cl` (stereo not given) belongs inactive: 9.19%; to `Cc1nnc(NC(=O)c2cccn(Cc3ccc(Cl)cc3)c2=O)s1`, inactive: 7.91%. As for `CCCCCCCCCCCC[N+](C)(C)CCOc1ccccc1`, the figure is inactive: -8.73%; as for `O=C(Nc1ccccc1-c1ccc(Cl)cc1)c1cccnc1Cl`, inactive: -24.2%; as for `CC(=O)NCCc1c[nH]c2ccccc12`, inactive: 9.91%. Regarding `CC1COC2(c3ccccc3Cl)c3cc(Cl)ccc3NC(=O)CN12` (stereo not given), the activation was inactive: 19.7%. `COc1ccc(NC(=O)CN2C(=O)C(C)N=C(c3ccccc3F)c3cc(Cl)ccc32)c(OC)c1` (stereo not given): the activation was inactive: -27.2%. As for `CC(N)c1cccc(Cl)c1Cl` (stereo not given), the figure is inactive: 2.82%; as for `Cc1cc(C)cc(-n2c(/C=C/c3cccc(F)c3)nc3ccccc3c2=O)c1`, inactive: -16%; as for `C#CCN(C)[C@H](C)Cc1ccccc1`, inactive: -1%. Take `Cc1ccc(NC(=O)N(Cc2ccc3c(c2)OCO3)C2CCN(Cc3ccccc3)CC2)cc1F`: the activation was inactive: -5.85%. To `C[C@@H]1O[C@@H](O[C@@H]2C=C3CC[C@@H]4[C@H](CC[C@]5(C)[C@@H](c6ccc(=O)oc6)CC[C@]45O)[C@@]3(C)CC2)[C@H](O)[C@H](O)[C@H]1O` belongs inactive: 16.4%; to `NC(Cc1ccc(N(CCCl)CCCl)cc1)C(=O)O` (stereo not given), inactive: -12%; to `Cc1cc(-n2c(/C=C/c3ccc(Br)s3)nc3ccccc3c2=O)ccc1Br`, inactive: -19%. As for `Cc1cc(-n2c(/C=C/c3cccs3)nc3ccccc3c2=O)ccc1Br`, the activation is inactive: -10.8%. To `CCN(CC)CCOC(=O)C(O)(c1ccccc1)c1ccccc1` belongs inactive: -0.171%; to `COc1ccc(C(CN(C)C)C2(O)CCCCC2)cc1` (stereo not given), inactive: -3.26% and inactive: -3.93%.

Turning to `COc1ccc(C(=O)Nc2ccc(Cl)cc2C(=O)c2ccccc2)c(OC)c1`, the activation is inactive: -24.5%. With `Cc1ccccc1CN1C(=O)CN=C(c2ccccc2)c2cc(Cl)ccc21`, the activation is inactive: -17.3%. To `Cc1ccc(OCC(=O)N2CCN(CCc3ccncc3)CC2)cc1C` belongs inactive: 14.9%; to `Cc1ccc(-n2c(/C=C/c3cc(Br)cs3)nc3ccccc3c2=O)cc1`, inactive: -10.7%; to `O=c1c2ccccc2nc(/C=C\c2ccccc2F)n1-c1ccc(O)cc1`, inactive: -4.21%. As for `CCN(CCCl)Cc1ccccc1Br`, the figure is inactive: -13.8%; as for `Cc1o[nH]c(=O)c1CC(N)C(=O)O` (stereo not given), inactive: 10%; as for `C[C@]12CC[C@H]3[C@@H](CCC4=CC(=O)CC[C@@]43C)[C@@H]1CC[C@@H]2C(=O)O`, inactive: 10.5%. For the compound `CCCCc1ccc(NC(=O)c2cccn(Cc3ccc(Cl)cc3)c2=O)cc1`, the activation was inactive: 5.02%. With `Cc1c(C(c2ccc(Cl)cc2Cl)c2c(O)c3ccccc3oc2=O)c(=O)n(-c2ccccc2)n1C` (stereo not given), the activation is inactive: 10.3%. As for `CCc1ccc(NC(=O)c2cccn(Cc3cccc([N+](=O)[O-])c3)c2=O)cc1`, the figure is inactive: 17.2%.

Turning to `Cc1cccc(-n2c(/C=C/c3ccccc3O)nc3ccccc3c2=O)c1`, the activation is inactive: -29.1%. As for `O=c1c2ccccc2nc(/C=C/c2cccc3ccccc23)n1-c1ccccc1Cl`, the activation was inactive: 14%.

As to `NP(N)(=O)NC(=O)c1ccc(F)cc1`, the activation was inactive: -5.55%.
